± gives the uncertainty stated by the source. The sequences are guide strands of siRNAs; only the seed at positions 2 to 7 varies.

One series has as its system HeyA8. The experiment in a line: cell viability relative to lipid-only control; higher = less toxic. Particulars: concentration: 10 nM; 96 h; Homo sapiens. The method, then:
(§1)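 Arrayed screen of 4096 siRNA duplexes, each carrying one of all possible 6mer seeds at guide-strand positions 2-7 in a fixed neutral 19mer scaffold (constant flanks: U at position 1, then ACAUGUAAACCA, plus a 3' AA overhang). The passenger strand is 2'-O-methylated at positions 1-2 so only the guide strand loads into RISC. Duplexes were reverse-transfected at 10 nM with RNAiMAX in triplicate in 384-well plates; viability was read by CellTiter-Glo ATP content 96 h after transfection. Values are % viability normalised to lipid-only wells (HeyA8, H460, M565) or to siNT1 (3LL).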

Another series deals with H460. Described as above. Particulars: concentration: 10 nM; 96 h; Homo sapiens. The method, then: as §1
The test system of a further series is M565. The description is as above. The following applies: concentration: 10 nM; 96 h; Mus musculus. As to the method:
as §1

In another series the test system is 3LL. As to the kind of experiment: cell viability relative to siNT1 control; HeyA8 human ovarian and H460 human lung cancer; M565 mouse liver and 3LL mouse lung cancer; siNT1 is a non-toxic control siRNA; higher = less toxic. The following applies: concentration: 10 nM; 96 h; Mus musculus. The method, then: as §1
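For cell viability relative to lipid-only control in this document: reverse lipid transfection in 384-well plates, in triplicate, of duplexes on a non-toxic 19mer backbone with passenger strand 2′-O-methylated at positions 1 and 2, luminescence viability read-out.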
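For cell viability relative to siNT1 control in this document: Luminescence-based viability of cells reverse transfected in 384-well plates with lipid-complexed siRNAs built on a non-toxic 19mer backbone whose passenger strand carries 2′-O-methyl groups at positions 1 and 2, triplicates.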

Usually cell viability stands for a read-out of living cells in per cent, often relative to untreated cells. Turning to UGCUACAACAUGUAAACCAAA, the cell viability is 49.3 ± 2.4% in the series with HeyA8, 63.2 ± 8.4% in the series on H460, 59.2 ± 2.4% in the series with M565 and 81 ± 12% with 3LL.
For UGCUUACACAUGUAAACCAAA, in that order: 20.4 ± 1.1%, 40.4 ± 1.8%, 94.8 ± 4.8% and 77.3 ± 4.3%.
As to UGUAGCGACAUGUAAACCAAA, the cell viability with HeyA8 came out at 62.3 ± 10%; with H460, 78.3 ± 19%; in the series on M565, 44 ± 11%; in the series with 3LL, 63.5 ± 16%.
As to UGCCGAAACAUGUAAACCAAA, the cell viability worked out at 91.1 ± 3.1% in the series on HeyA8, 100 ± 8.1% with H460, 51.3 ± 8.8% with M565 and 89.1 ± 12% with 3LL.
In the case of UCCCCGGACAUGUAAACCAAA, the cell viability turned out to be 60.6 ± 2.8% in the series with HeyA8, 65.5 ± 7.6% in the series on H460, 78.5 ± 20% in the series with M565 and 106 ± 7.4% in the series with 3LL.
As for UUAUAUUACAUGUAAACCAAA, the cell viability stood at 77.4 ± 5.8% in the series with HeyA8, 55.5 ± 8.3% with H460, 74.7 ± 12% in the series with M565 and 75 ± 8.8% with 3LL.
In the case of UCACUUGACAUGUAAACCAAA, the cell viability with HeyA8 was 76.6 ± 4.8%; in the series on H460 it was 42.3 ± 5.8%; with M565 it was 55.2 ± 10%; in the series with 3LL it was 92.7 ± 11%.
UCGCACAACAUGUAAACCAAA: the cell viability in the series on HeyA8 is 88.2 ± 4%; in the series with H460, 46.6 ± 8.3%; with M565, 61.2 ± 5.4%; with 3LL, 92.2 ± 17%.
Regarding UCAAUAGACAUGUAAACCAAA, the cell viability turned out to be 85.6 ± 6.5% in the series with HeyA8, 54.1 ± 3.8% in the series with H460, 65 ± 7.3% with M565 and 94.1 ± 21% with 3LL.
Taken in the same sequence, the figures for UAUGCCUACAUGUAAACCAAA were 30.8 ± 1.6%, 16.3 ± 2.1%, 23.4 ± 7% and 41.8 ± 5.7%.
With UGCGCUUACAUGUAAACCAAA, the cell viability with HeyA8 amounted to 31.3 ± 3.6%; in the series with H460, 28.1 ± 2.1%; with M565 it was 55 ± 6.1%; in the series with 3LL it was 79.9 ± 8.9%.
As for UCGCAAUACAUGUAAACCAAA, the cell viability was 85.1 ± 6.3% in the series with HeyA8, 73.7 ± 5.2% with H460, 82 ± 18% with M565 and 95 ± 11% with 3LL.
For the sequence UCUAUGGACAUGUAAACCAAA, the cell viability came to 87.1 ± 4.8% with HeyA8, 55.3 ± 4.3% in the series on H460, 52.8 ± 6.8% in the series on M565 and 94.6 ± 14% with 3LL.
Consider UUGGUUUACAUGUAAACCAAA, for which the cell viability was 96.1 ± 9% with HeyA8, 107 ± 22% in the series with H460, 96.6 ± 19% in the series with M565 and 101 ± 10% with 3LL.
Taken in the same sequence, the figures for UUGAGUCACAUGUAAACCAAA were 68.9 ± 6%, 58.7 ± 6.1%, 12.1 ± 0.97% and 45.8 ± 8.3%.
With UCAUGGUACAUGUAAACCAAA, the cell viability in the series with HeyA8 was 30.3 ± 1.7%; with H460 it was 31.1 ± 1.8%; in the series with M565 it was 27.7 ± 7.2%; with 3LL, 79.1 ± 14%.
As to UAGUCAUACAUGUAAACCAAA, the cell viability with HeyA8 came out at 44.2 ± 5.2%; with H460 it was 86.7 ± 18%; in the series on M565, 52.7 ± 7.8%; in the series with 3LL it was 57.4 ± 5.9%.
With UCAACAAACAUGUAAACCAAA, the cell viability in the series on HeyA8 was 81.5 ± 8.6%; in the series with H460, 79.6 ± 8.2%; with M565, 71.5 ± 5.1%; in the series with 3LL, 90.6 ± 18%.
Taken in the same sequence, the figures for UACGCGGACAUGUAAACCAAA were 84.8 ± 5.6%, 66.7 ± 9.4%, 73.1 ± 8.6% and 82.4 ± 4.6%.
As for UAGGCGAACAUGUAAACCAAA, the cell viability turned out to be 71.2 ± 8.1% with HeyA8, 77.6 ± 19% with H460, 26.9 ± 2.6% with M565 and 89.4 ± 14% in the series on 3LL.
For UACCUUCACAUGUAAACCAAA, in that order: 38.1 ± 1.6%, 55.1 ± 8.5%, 40.7 ± 1.5% and 48.8 ± 9.4%.
Take UAAAGAAACAUGUAAACCAAA: the cell viability was 101 ± 3.6% in the series with HeyA8, 77.5 ± 10% with H460, 89.2 ± 21% in the series on M565 and 111 ± 14% in the series on 3LL.
With UCGCCUCACAUGUAAACCAAA, the cell viability stood at 46.3 ± 4% in the series on HeyA8, 70.6 ± 6.2% in the series on H460, 15.4 ± 2.1% in the series on M565 and 35 ± 7.6% in the series on 3LL.
For UGCUUGGACAUGUAAACCAAA, in that order: 25.3 ± 2.1%, 36.5 ± 5.7%, 21 ± 6.3% and 42.4 ± 4.6%.
Regarding UGCUCUCACAUGUAAACCAAA, the cell viability with HeyA8 was found to be 71.5 ± 2.1%; with H460 it was 47.1 ± 5.7%; in the series with M565, 31.9 ± 8.5%; in the series with 3LL it was 15.7 ± 6.8%.
For UUGAGUAACAUGUAAACCAAA, in that order: 98.3 ± 5.8%, 70.4 ± 8.3%, 62.8 ± 9.6% and 54.9 ± 7.7%.
Consider UAGGCCCACAUGUAAACCAAA, for which the cell viability in the series with HeyA8 was determined as 51.3 ± 3.2%; with H460, 54.9 ± 9.2%; in the series on M565 it was 16.2 ± 2.9%; in the series with 3LL it was 20.8 ± 5.5%.
For UUUGUCUACAUGUAAACCAAA, the cell viability in the series with HeyA8 came to 69.8 ± 6.8%; in the series with H460, 77.9 ± 1.3%; with M565, 78.4 ± 8.3%; in the series with 3LL, 91.3 ± 9.3%.
In the case of UGCGUGCACAUGUAAACCAAA, the cell viability in the series on HeyA8 came out at 6.13 ± 0.44%; with H460 it was 40.6 ± 0.96%; in the series with M565, 23.7 ± 1.5%; in the series with 3LL, 30.4 ± 3.5%.

The record behind these values is the supplement of paper PMC6206098.
